# Results from PubChem BioAssay (NCATS).
# “And” between values parts separate entries of the source, which are not always exact repeats. Identical values can stand only once. The list shows a part of the results. Further columns of the screen follow, without active or inactive calls. For some assays here: Compounds called inactive in the main read-out are mostly missing here. For some assays here: Potencies come from curve fits of mixed quality, noted in brackets.
# How the values were obtained:
# [1] = qHTS Assay for Lipid Storage Modulators (AID 1519); details: Drosophila S3 cells, BODIPY lipid droplet/cell ratio, laser cytometry, cells loaded with oleic acid
# Procedure, shortened: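 Cells seeded at 5,000 per well were treated with compounds over a concentration series and loaded with oleic acid (400 uM, as added). Lipid droplet fluorescence (488 nm excitation, 500-530 nm channel) was read by laser-scanning cytometry and normalized to 20 uM Triacsin C.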
# [2] = qHTS assay for small molecule antagonists of androgen receptor signaling (AID 588516); details: AR-UAS-bla HEK293, beta-lactamase ratio, antagonist mode, 16 h
# Procedure, shortened: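 Antagonist-mode qHTS: inhibition of R1881 (10 nM)-driven beta-lactamase expression in GripTite HEK 293 cells is measured after 16 h; values are Hill-derived IC50s normalized between R1881 and DMSO wells.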
# [3] = qHTS assay for small molecule antagonists of peroxisome proliferator-activated receptor delta signaling (AID 588535); details: HEK293T PPARd-UAS-bla, beta-lactamase FRET ratio, 18 h; 460 nm channel;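 note: cells co-treated with a PPAR-delta agonist as stimulator during compound exposure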
# Procedure, shortened: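 GeneBLAzer PPAR-delta-UAS-bla HEK293T cells in medium with 2% charcoal/dextran FBS were preincubated 5 hrs at 37 C, then given compounds, incubated 18 hrs at 37 C, and read by CCF4 beta-lactamase fluorescence; IC50 from Hill fits.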
# [4] = qHTS assay for small molecule agonists of retinoid X receptor alpha signaling (AID 588544); details: HEK293T RXRa-UAS-bla, beta-lactamase reporter, 18 h; 530 nm emission
# [5] = qHTS assay for small molecule antagonists of retinoid X receptor alpha signaling (AID 588546); details: HEK293T RXRa-UAS-bla, beta-lactamase ratio, antagonist mode; measured here: W530 green channel, cytotoxicity proxy;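 note: cells stimulated with 9-cis-retinoic acid as agonist; % is set by controls: 0 for no effect and ±100 for the full control effect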
# Procedure, shortened: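 Beta-lactamase reporter inhibition, read as CCF4 fluorescence ratio (ex 405, em 460/530 nm) after 2 h at RT. HEK293T UAS-bla cells, 2500/well, were stimulated with 9-cis-RA at 500 or 100 nM final alongside test compound for 18 h at 37 C.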
# [6] = biological target: Catechol O-methyltransferase (Homo sapiens) (UniProt P21964); test: Confirmatory Screen for Target Class Profiling of Small Molecule Inhibitors of Methyltransferases (AID 1745852); details: MTase-Glo luminescence, SAH detection, recombinant enzyme; measured here: COMT inhibition potency;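 note: inhibitor potency for blocking SAH production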
# [7] = qHTS drug screen for cell cycle checkpoint inhibitors in PARPi-resistant BRCA-mutant ovarian cancer cell lines. (AID 1963452); details: PEO1/OlaR viability, CellTiter-Glo luminescence, 96 h
# Procedure, shortened: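 PEO1, PEO4 and PEO1/OlaR ovarian cancer cells, 600 per well, exposed 96 h at 37C to a dilution series. Viability read by CellTiter-Glo luminescence, normalized to DMSO and empty wells; activity summarized as Z-AUC.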
# [8] = qHTS for identification of novel therapeutic agents for treatment of microphthalmiaassociated transcription factor (MiT) renal cell carcinoma (RCC) (AID 1963991); details: CellTiter-Glo, 48 h; for z-score: stronger effect = lower value
# Procedure, shortened: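 Curves over 11 concentrations were fitted to CellTiter-Glo luminescence, scaled between empty wells (0%) and DMSO (100%) viability. Cells were UOK109, UOK124 and UOK145 TFE3-fusion RCC lines at 500/well, exposed 48 hours at 37 C.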
# [9] = qHTS Validation Assay to Find Inhibitors of Chronic Active B-Cell Receptor Signaling (AID 485345); details: ABC-DLBCL cells, chronic BCR signaling reporter
# Procedure, shortened: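 TMD8 ABC-DLBCL cells with dox-inducible green luciferase–IκBα fusion and red native luciferase; compounds 46 uM–3 nM, 4 h at 37C with doxycycline in 0.5% FBS IMDM. Green/red ratio normalized to basal and 10 uM MG-132.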
# [10] = A High-Content qHTS Against Drug Library for the Identification of Small Molecules that Inhibit DYT1 Early Onset Primary Dystonia-Associated Cell Pathology (AID 1645839); details: HEK293 Flp-In EGFP-delE TorsinA, punctate imaging, 48 h; measured here: cell count cytotoxicity
# Procedure, shortened: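 Readout: %pathology, the punctate EGFP-TorsinA distribution from imaging, as the primary channel and cell count as the toxicity counterscreen. HEK293 Flp-In cells expressing delE TorsinA were induced with tetracycline and treated with compound for 48 h.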
# [11] = qHTS Assay for Modulators of Human Peripheral Myelin Protein 22 (PMP22) Expression/Activity (AID 1967); details: Cell-based PMP22 reporter, dual-color luciferase ratio
# Procedure, shortened: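 Engineered MSC80 cells, Pmp22-promoter green and EF-alpha red luciferase reporters; 24h compound treatment at 37 °C. Concentration-response fits on green, red and ratio signals, each overlap-corrected, with %Activity normalized to untreated wells.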
# [12] = S16 Schwann cell PMP22 intronic element beta-lactamase assay (AID 624044); details: S16 rat Schwann cells, PMP22 element beta-lactamase FRET, 24 h; note: nearly all actives have a fitted effect of over 15% in size
# Procedure, shortened: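 Rat S16 Schwann cells with beta-Lac driven by a PMP22 intronic element, compound-treated 24 h at 37 °C. LiveBLAzer FRET B/G read: 460 nm normalized to potassium clavulanate vs DMSO; 535 nm FRET as viability; concentration-effect curves classified.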
# [13] = NCATS anti-infectives library activity on the primary C. elegans qHTS viability assay (AID 1745855); details: C. elegans worm area imaging, day 7; measured here: worm number, day 3
# Procedure, shortened: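 Viability is taken from GFP fluorescence of PE254-GFP-FLuc C. elegans imaged by laser cytometry over 7 days. Ten L1 worms per well grow at 21 °C on TOP10 E. coli capsules with titrated compound; levamisole marks toxicity.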
# [14] = qHTS assay for small molecule antagonists of glucocorticoid receptor signaling (AID 588533); details: HeLa MMTV-bla, GRE beta-lactamase ratio, antagonist mode, 18 h; measured here: W530 channel AC50;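 note: cells stimulated with 2 nM dexamethasone as agonist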
# [15] = measured here: cell count channel max response
# [16] = measured here: cell number channel AC50
# [17] = measured here: lipid (BODIPY) channel AC50
# [18] = measured here: lipid channel max response
# [19] = measured here: W530 green channel, cytotoxicity/artifact
# [20] = measured here: PEO1 parental viability
# [21] = TFE3-RCC UOK109 viability, measured here: UOK109 Z-AUC
# [22] = TFE3-RCC viability, measured here: UOK124 Z-AUC
# [23] = TFE3-RCC viability, measured here: UOK124 cell viability
# [24] = TFE3-RCC viability, measured here: UOK145 Z-AUC
# [25] = TFE3-RCC viability, measured here: UOK145 cell viability
# [26] = measured here: CBG/CBR ratio read-out
# [27] = measured here: CBR control luciferase (viability counter)
# [28] = measured here: 460 nm blue channel
# Tags give direction and shape of the fitted curve.
# Chain of UniProt P21964 (P21964 whole entry, looked up): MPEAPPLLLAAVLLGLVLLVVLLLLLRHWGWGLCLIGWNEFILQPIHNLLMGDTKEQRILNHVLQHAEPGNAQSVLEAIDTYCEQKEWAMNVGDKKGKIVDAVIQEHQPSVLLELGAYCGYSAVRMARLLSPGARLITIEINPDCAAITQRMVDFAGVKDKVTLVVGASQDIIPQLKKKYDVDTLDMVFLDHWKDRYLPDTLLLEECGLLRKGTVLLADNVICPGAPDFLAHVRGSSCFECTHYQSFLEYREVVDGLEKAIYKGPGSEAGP
structure (smiles),measurement,setting,value
COc1ccccc1CCn1c(=O)c(CCc2ccccc2)nc2cncnc21,max response,[1]; [15],48.3%
same,AC50,[1]; [16],"0.891 µM [rising, full curve]"
same,AC50,[1]; [17],"0.708 µM [rising, full curve]"
same,max response,[1]; [18],57.8%
COc1cccc(-c2cc(NCc3ccc(OC)cc3OC)ncn2)c1,max response,[1]; [15],28.7%
same,AC50,[1]; [16],"1.58 µM [rising, full curve, poor fit]"
same,AC50,[1]; [17],"1.78 µM [rising, full curve]"
same,max response,[1]; [18],35.2%
CN(Cc1ccco1)c1ncnc2ccc(-c3ccoc3)cc12,max response,[1]; [15],26.3%
same,AC50,[1]; [16],"3.55 µM [rising, partial curve]"
same,AC50,[1]; [17],"3.55 µM [rising, partial curve]"
same,max response,[1]; [18],20.1%
COc1cc(/C=C/C(=O)CC(=O)/C=C/c2ccc(O)c(OC)c2)ccc1O,max response,[1]; [15],2.09%
same,AC50,[1]; [16],"1.41 µM [rising, full curve]"
same,AC50,[1]; [17],"1.58 µM [rising, full curve]"
same,max response,[1]; [18],-41.3%
same,AC50,[2]; [19],"35.5 µM [rising, partial curve]"
same,max response,[3],57.9%
same,max response,[4],65.9%
same,max response,[5],46%
same,IC50,[6],"21.7 µM [falling, partial curve]"
CC(C)c1ccc(Cn2ccc3c4c(N)nc(NC5CC5)nc4ccc32)cc1,max response,[1]; [15],56.6%
same,AC50,[1]; [16],"3.16 µM [rising, full curve]"
same,AC50,[1]; [17],"3.55 µM [rising, full curve]"
same,max response,[1]; [18],45.1%
same,AC50,[7]; [20],"0.245 µM [falling, full curve, poor fit]"
same,AC50,[7]; measured here: PEO4 viability,"0.155 µM [falling, full curve]"
same,z-score,[8]; [21],-0.134
same,z-score,[8]; [22],-0.884
same,AC50,[8]; [23],"5.26 µM [falling, full curve]"
same,z-score,[8]; [24],-0.385
same,AC50,[8]; [25],"13.2 µM [falling, partial curve]"
Cn1ccc2cc3c(cc21)CCN3C(=O)Nc1cccnc1,max response,[1]; [15],93% and 46%
same,AC50,[1]; [16],"2 µM [rising, full curve, poor fit]"
same,AC50,[1]; [17],"4.47 µM [rising, partial curve, poor fit]"
same,max response,[1]; [18],130% and 48.9%
same,AC50,[9]; [26],"9.2 µM [falling, partial curve]"
same,AC50,[9]; [27],"5.8 µM [rising, partial curve]"
same,AC50,[10],"10 µM [falling, single point]"
same,z-score,[8]; [21],0.604
same,z-score,[8]; [22],0.795
same,z-score,[8]; [24],0.621
same,AC50,[8]; [25],"26.4 µM [falling, single point]"
COc1cc(C(=O)OCCCN2CCCN(CCCOC(=O)c3cc(OC)c(OC)c(OC)c3)CC2)cc(OC)c1OC,max response,[1]; [15],34.9% and 13.1%
same,AC50,[1]; [16],"10 µM [rising, partial curve, poor fit] and 15.8 µM [falling, single point]"
same,AC50,[1]; [17],"15.8 µM [rising, partial curve, poor fit]"
same,max response,[1]; [18],46.3% and 14.6%
same,AC50,"[11]; measured here: green reporter channel AC50, mouse Pmp22 promoter in mouse Schwann cells","67.5 µM [falling, partial curve]"
same,AC50,"[11]; measured here: red reporter channel AC50, EF-alpha promoter control reporter in MSC80 mouse Schwann cells","84.9 µM [falling, single point]"
same,AC50,[9]; [26],"5.8 µM [falling, full curve]"
same,AC50,[9]; [27],"0.0146 µM [rising, full curve]"
same,AC50,[12]; [28],"12.6 µM [falling, full curve]"
same,AC50,[10],"22.4 µM [falling, single point]"
O=c1ccc2cc3ccoc3cc2o1,max response,[1]; [15],138%
same,AC50,[1]; [16],"8.91 µM [rising, partial curve]"
same,AC50,[1]; [17],"14.1 µM [rising, partial curve]"
same,max response,[1]; [18],182%
same,AC50,[13],"4.09 µM [falling, partial curve, poor fit]"
COC(=O)Nc1nc2ccc(C(=O)c3ccccc3)cc2[nH]1,max response,[1]; [15],7.94%
same,AC50,[1]; [16],"3.16 µM [rising, partial curve]"
same,AC50,[1]; [17],"3.16 µM [rising, partial curve, poor fit]"
same,max response,[1]; [18],20.9%
same,AC50,[12]; [28],"9.51 µM [falling, partial curve, poor fit]"
same,AC50,[7]; [20],"0.11 µM [falling, full curve]"
same,AC50,[7]; measured here: PEO4 viability,"0.138 µM [falling, full curve]"
same,z-score,[8]; [21],-3.21
same,z-score,[8]; [22],-0.543
same,AC50,[8]; [23],"1.18 µM [falling, full curve]"
same,z-score,[8]; [24],-0.0205
same,AC50,[8]; [25],"5.26 µM [falling, partial curve]"
CN(C)c1ccc(C(=C2C=CC(=[N+](C)C)C=C2)c2ccc(N(C)C)cc2)cc1,max response,[1]; [15],-106%
same,AC50,[1]; [16],"1.78 µM [falling, full curve]"
same,AC50,[1]; [17],"1.58 µM [falling, full curve]"
same,max response,[1]; [18],-103%
same,AC50,[2]; measured here: W460 blue channel fit,"14.1 µM [falling, partial curve]"
same,AC50,[2]; [19],"8.91 µM [rising, full curve] and 10 µM [rising, partial curve]"
same,AC50,[14],"28.2 µM [falling, full curve, poor fit] and 44.7 µM [falling, partial curve, poor fit]"
same,max response,[3],1.36% and -0.271%
same,max response,[4],27.8% and -34.2%
same,max response,[5],-7.84% and -52%
same,AC50,[12]; [28],"1.58 µM [falling, full curve]"
same,AC50,[12]; measured here: 530 nm viability channel,"1.41 µM [falling, full curve]"
same,AC50,[7]; [20],"0.245 µM [falling, full curve]"
same,AC50,[7]; measured here: PEO4 viability,"0.195 µM [falling, full curve]"
same,AC50,[8]; [23],"0.59 µM [falling, full curve]"
same,AC50,[8]; [25],"0.418 µM [falling, full curve]"
